# Laboratory results from PubChem BioAssay AID2546 (National Center for Advancing Translational Sciences (NCATS), 2010).
# Hit rate of the full screen: of about 310,000 compounds, about 11,000 (3.5%) were called active. This list was built around the results that the source calls inconclusive (neither active nor inactive); the mix of calls is not that of the screen. Calls follow the shape of the dose curve; as a rule, active = well fitted inhibition curve with a large enough effect; inconclusive = small, poorly fitted or top-dose-only effect, or effect the other way; inactive = flat fitted curve, though single readings scatter. Potencies of inconclusive entries are left out as doubtful fits.
# Experiment: VP16 counterscreen qHTS for inhibitors of ROR gamma transcriptional activity;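 also: Gal4-VP16 expression switched on by copper sulfate through the metallothionein promoter; nearly all actives have a fitted effect of over 50% in size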
# Settings: Drosophila S2 Gal4-VP16 UAS-luciferase, luminescence, 20 h; activity, negative = inhibition: at 53.6 µM (top of the series)
# Excerpt: NIH Molecular Libraries Probe Production Network [MLPCN]
# NIH Chemical Genomics Center [NCGC]
# Assay Provider: Dan Littman, New York University
# The retinoic acid-related orphan receptor (ROR) gamma is a transcription factor that has a central role in the differentiation of Th17 cells, a subset of T helper cells that secrete the inflammatory cytokines IL-17, IL-17F, and IL-22. Th17 cells have been implicated in graft versus host disease, autoimmune disease and asthma. ROR gamma is induced in naive T helper cells in the presence of TGF-beta combined with IL-6, IL-21, or IL-23, and thereafter directs the expression of the Th17 lineage cytokines. To identify nonspecific inhibitors, a Drosophila Schneider cell line was stably transfected with two vectors: a gene expressing a fusion of the Gal4 DNA binding domain and VP16 transactivation domain under the control of the metallothionine promoter and a Photinus luciferase reporter regulated by the Gal4 binding site enhancer, UAS. […] Small molecule inhibitors that inhibit components common to the RORgt and VP16 assays, such as the Gal4 DNA binding domain or the UAS luciferase reporter, will be active in both assays and thus scored as nonspecific.
# For screening, 600 cells in 4 uL/well were dispensed into white solid 1536-well plates (Grenier) using a solenoid-based dispenser. Following transfer of 23 nL compound or DMSO vehicle by a pin tool, the plates were incubated 1 hr at ambient temperature, and 1 uL/well copper sulfate (700 uM final concentration) was added. The plates were centrifuged 15 s at 1000 RPM and incubated 20 hr at ambient temperature. After addition of 1.5 uL Photinus luciferase detection reagent, the plates were incubated 10 min at ambient temperature and then read by a ViewLux (Perkin Elmer) to detect luminescence.
# % is scaled to controls: 0 for no effect and ±100 for the full control effect; potency is read from the fitted curve at half-maximal effect; tags tell the direction and shape of the fitted curve.
Compound,"activity, negative = inhibition",Potency
CCOC(=O)C1=C(C)N=c2s/c(=C/c3ccc(OCC(=O)O)cc3)c(=O)n2C1c1ccc(SC)cc1 (stereo not given),inactive: -28.3%,
Cc1ccccc1-c1noc(CCC(=O)NCc2ccco2)n1,inactive: 22.2%,
CCc1c(C)nc2cc(-c3ccc(OC)c(OC)c3)nn2c1NCC1CC1,,active: 4.47 µM
CNS(=O)(=O)c1ccc(NS(=O)(=O)c2ccccc2F)cc1,inactive: -7.57%,
CO[C@@H]1/C=C\CC(=O)N2CCC[C@@H]2C(=O)OC[C@H](C)C(=O)OC[C@H]1C,inactive: 3.37% [at 10 µM],
CCCCNC(=O)C1=C(N)C(C(=O)Nc2ccc(C)c(S(=O)(=O)N3CCCCC3)c2)SC1=Nc1ccc(C)cc1C (stereo not given),,"inconclusive [inhibitor, single point]"
O=C(CNc1ccccc1)N/N=C/c1ccc([N+](=O)[O-])o1,,"inconclusive [inhibitor, single point]"
O=C1CC(/C=C/c2ccccc2)=Nc2ccccc2N1,,"inconclusive [activator, partial curve, poor fit]"
CCOC(OCC)c1cn(Cc2ccc(C(=O)c3ccccc3)cc2)nn1,,active: 17.8 µM
Cc1onc(-c2ccccc2)c1C(=O)Nc1nnc(N(C)Cc2ccccc2)s1,,"inconclusive [inhibitor, single point]"
CC(=O)c1cc(NC(=O)c2ccc(Cl)cc2)c(=O)oc1/C=C/N(C)C,,"inconclusive [inhibitor, single point]"
COCCCNC(=O)CN1C(=O)/C(=C/c2ccccc2C)Sc2ccccc21,inactive: -1.61% [at 10 µM],
O=C(Nc1cc2ccccc2oc1=O)c1ccccc1,,"inconclusive [inhibitor, partial curve]"
COc1ccc(/C=C/C(=O)NC(=S)N2CCN(c3ccccn3)CC2)cc1OC,,active: 11.2 µM
COC(=O)c1cc2sc(Cl)cc2n1CC(=O)Nc1ccc(OC)c(OC)c1OC,inactive: -1.59%,
CSc1ccc(S(=O)(=O)N2CCC(C(=O)NCC3CCCO3)CC2)cc1 (stereo not given),inactive: -5.79%,
CC1CCCCN1C(=O)COC(=O)C1CCN(S(=O)(=O)c2c(Cl)cccc2Cl)CC1 (stereo not given),inactive: -7.05%,
Cc1csc(SCC(=O)NCc2ccccc2)n1,inactive: 3.48%,
Cc1cc(Br)cc(C)c1NC(=S)NC(=O)CC(C)C,,active: 7.94 µM
Clc1ccc(Sc2cc(Cl)c(-c3ccccc3)nn2)cc1,,"inconclusive [inhibitor, single point]"
COc1ccc2c(c1)Cc1sc(NC(=O)c3cccs3)nc1-2,,"inconclusive [inhibitor, single point]"
O=C(CSc1ccc(-c2ccccc2)nn1)c1cccs1,,"inconclusive [activator, full curve]"
O=S(=O)(c1ccc(NC(=S)NCc2ccncc2)cc1)N1CCCCC1,inactive: 7.27%,
Cn1c(=O)[nH]c(=O)c2c1nc(N1CCCCC1)n2C/C=N/Nc1ccc(C(=O)O)cc1,,"inconclusive [inhibitor, partial curve]"
COc1ccc(NC2CCCN(C(=O)CCN3CCOCC3)C2)cc1 (stereo not given),,"inconclusive [inhibitor, single point]"

Compound,"activity, negative = inhibition",Potency
COc1ccc(C(=O)C/C(=C\C(=O)c2ccc(C)cc2)c2ccccc2)cc1,,"inconclusive [inhibitor, single point]"
O=S(=O)(N[C@H]1C[C@@H](NS(=O)(=O)OCC(Cl)(Cl)Cl)C2CCCCC21)OCC(Cl)(Cl)Cl (stereo not given in full),,"inconclusive [inhibitor, single point]"
CSc1nnc2c3cc(F)ccc3n(Cc3ccccc3)c2n1,,"inconclusive [inhibitor, single point]"
O=C(c1ccc2ccccc2c1)N1CCN(c2ccc(C(F)(F)F)cn2)CC1,inactive: 4.99%,
CN(C)/C=C(\C(=O)c1cccc(Cl)c1)c1nnnn1-c1ccccc1,,"inconclusive [inhibitor, single point]"
O=c1c2cc3ccccc3n2cnn1Cc1ccccc1F,,"inconclusive [inhibitor, single point]"
CC(=O)c1c(OC(=O)c2ccccc2Br)ccc2c(C)cc(=O)oc12,,"inconclusive [inhibitor, single point]"
Cc1cc(Nc2ccc3c(c2)OCCO3)c2cc(Cl)ccc2n1,inactive: -7.33%,
S=c1[nH]nc(C2CCCCC2)n1/N=C/c1cccc(Cl)c1Cl,,active: 5.01 µM
Cc1cc(C)c2nc(-c3ccccn3)cc(C(=O)NCc3ccc(S(N)(=O)=O)cc3)c2c1,,"inconclusive [inhibitor, single point]"
COCCNc1nnc(SCC(=O)Nc2cc(-c3ccccc3)nn2-c2ccccc2)s1,inactive: -27.8%,
CCOC(=O)C(Sc1nnc(-c2ccncc2)o1)C(C)=O (stereo not given),,active: 4.47 µM
CCNC(=S)N/N=C/c1ccccc1[N+](=O)[O-],,"inconclusive [inhibitor, single point]"
CCNC(=O)c1c(NC(=O)C2COc3ccccc3O2)sc2c1CCCC2 (stereo not given),,active: 11.2 µM
CCOc1cc(CNc2ccc(O)cc2)ccc1OCc1ccc(Cl)cc1Cl,,"inconclusive [inhibitor, single point]"
CC(Nc1ccc(Cl)cc1)c1cc(Cl)ccc1O (stereo not given),,active: 12.6 µM
COc1ccc(C(=O)NCC(=O)N2CCN(c3ccc(Cl)cc3)CC2)cc1,inactive: -12.9%,
Cc1c(C(=O)NCCc2ccccc2)oc2ccc(S(=O)(=O)N3CCC4(CC3)OCCO4)cc12,inactive: 5.99%,
CC1CCCCC1NC(=O)COC(=O)/C=C/c1ccc2c(c1)OCO2 (stereo not given),,"inconclusive [activator, single point]"
CCCC1=NN(C(=O)Cc2ccc(OC)cc2)C(O)(C(F)(F)F)C1 (stereo not given),,"inconclusive [inhibitor, single point]"
COc1cccc2sc(N(CCCN(C)C)C(=O)COc3ccc(Cl)cc3)nc12,inactive: -23.8%,
Cc1cc(CC(C)C)n(-c2nc3ccccc3c(=O)n2OCC(N)=O)n1,,active: 5.62 µM
CC1CN(CC(=O)NCc2ccccc2)CC(C)O1 (stereo not given),inactive: -11.6%,
CN(C)S(=O)(=O)c1ccc(C(=O)Nc2nnc(-c3ccc4c(c3)CCCC4)o2)cc1,,active: 0.0891 µM
COc1ccc(C2c3ccc4ccccc4c3Oc3ncn(Cc4ccco4)c(=N)c32)cc1OC (stereo not given),,"inconclusive [inhibitor, single point]"

Compound,"activity, negative = inhibition",Potency
COc1ccc(NC(=O)c2sccc2C)c([N+](=O)[O-])c1,,"inconclusive [inhibitor, single point]"
CN(C)c1ccc(-c2nc3ccccc3c(=O)[nH]2)cc1,,"inconclusive [inhibitor, partial curve, poor fit]"
CC(C)(C)c1cc(C(=O)Nc2ccc(F)cc2)n(Cc2ccc(F)cc2)n1,,"inconclusive [inhibitor, single point]"
Cc1ccc2oc(-c3ccc(NC(=O)c4ccc5c(c4)OCO5)cc3)nc2c1,,"inconclusive [inhibitor, single point]"
O=C1/C(=C/c2ccco2)CCC1C1CCCC1 (stereo not given),,"inconclusive [activator, single point]"
CC1=NN(/C(=N\c2nnc(C)s2)Nc2ccc(C(C)(C)C)cc2)[C@H](c2ccc(C)cc2)S1,,"inconclusive [inhibitor, single point]"
CC(C)(C)C(=O)/C(=C\c1ccc([N+](=O)[O-])cc1)n1cncn1,,active: 4.47 µM
CN(C)c1ccc(NC(=O)CSc2nc(N)c(C(=O)Nc3ccc(N(C)C)cc3)s2)cc1,inactive: -13.6%,
CNc1oc(-c2ccccc2Cl)nc1P(=O)(c1ccccc1)c1ccccc1,,"inconclusive [inhibitor, single point]"
CC(C)(C)c1ccc(C(=O)NNC(=S)NCC2CCCO2)cc1 (stereo not given),,"inconclusive [inhibitor, partial curve]"
Cc1nnc(NC(=O)c2cccc(S(=O)(=O)N3CCc4ccccc43)c2)s1,,"inconclusive [inhibitor, single point]"
O=C(O)CCc1ccc(-c2cccs2)n1NC(=O)c1ccc(Cl)cc1,inactive: 15.6%,
CN1c2ccc([N+](=O)[O-])cc2N(C)C1(C)c1ccccc1 (stereo not given),,"inconclusive [inhibitor, single point]"
NNc1ccc(Cl)nn1,,"inconclusive [inhibitor, single point]"
O=C(N/N=C/c1ccccc1)c1ccc2c(c1)OCO2,,active: 11.2 µM
O=C(O)c1ccc(N/N=C/c2cc(Br)cs2)cc1,,active: 1 µM
O=C(N/N=C/C(Br)=C/c1ccccc1)c1ccccc1F,,"inconclusive [inhibitor, partial curve, poor fit]"
Cc1ccc([N+](=O)[O-])c(-c2n[nH]c(=S)n2-c2cccc(Cl)c2)c1,inactive: -11.8%,
O=C(NC1CCCCCCC1)c1cc(COc2ccc3ncccc3c2)on1,,active: 3.98 µM
CC(=O)NC(=S)Nc1cccc2ccc(C)nc12,,active: 12.6 µM
S=c1nc(-c2ccccc2)[nH]c2ccccc12,,active: 7.08 µM
CCCC(=O)n1nc(-c2cccnc2)nc1N,,"inconclusive [inhibitor, single point]"
COc1ccc(-c2nn(-c3ccccc3)cc2/C=N/Nc2ccc3ccccc3n2)cc1OC,,active: 5.01 µM
COc1ccc(OCc2cccc(C(=O)Nc3cc(C)on3)c2)cc1,,"inconclusive [activator, full curve, poor fit]"
Cc1c(CNCCc2ccccc2)c(C(=O)O)c(C)n1-c1ccccc1,inactive: 20.5%,
